A short description of test [1]: qHTS drug screen for cell cycle checkpoint inhibitors in PARPi-resistant BRCA-mutant ovarian cancer cell lines. (AID 1963452). Particulars: PEO1/OlaR viability, CellTiter-Glo luminescence, 96 h. In short, it runs like this:
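PEO1, PEO4 and PEO1/OlaR ovarian cancer cells, 600 per well, exposed 96 h at 37C to a dilution series. Viability read by CellTiter-Glo luminescence, normalized to DMSO and empty wells; activity summarized as Z-AUC.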

Test [2] can be described thus: qHTS for identification of novel therapeutic agents for treatment of microphthalmiaassociated transcription factor (MiT) renal cell carcinoma (RCC) (AID 1963991). To be noted: TFE3-RCC viability, CellTiter-Glo, 48 h. In short, it runs like this: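 Three TFE3-fusion RCC cell lines (UOK109, UOK124, UOK145), 500 cells/well, were exposed to the 1912-compound MIPE 4.0 library for 48 hours at 37 C. Viability was read by CellTiter-Glo luminescence, normalised to DMSO (100%) and empty wells (0%), with 11-concentration curve fits.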

Setting [3] is: measured here: PEO1 parental viability.
The mark [4] stands for this setting: measured here: UOK124 cell viability.
The mark [5] stands for this setting: measured here: UOK145 cell viability.

SMILES strings stand for the structures. Values joined by “and” are separate entries in the source; they are usually repeats but may differ in a detail not shown here. Equal entries are not always repeated. The list shows a part of the results. The main result of the screen is listed elsewhere. These columns were measured beside it and carry no call. For some assays here: Most of these compounds were active or inconclusive in the main read-out, so they are no random draw. The note in brackets gives the kind of curve behind each potency; many fits are weak. Where a SMILES comes first, the peptide text is derived from it. [ ]: non-standard residue; d: D form. The star is where a group is joined. Nva = CCC[C@H](N)C(=O)O; Cbz = O=C(OCc1ccccc1)*
Tags tell the direction and shape of the fitted curve.

Turning to `CC[C@]12C=CCN3CC[C@@]4(c5cc([C@@]6(C(=O)OC)C[C@H]7C[C@@H](C(C)(F)F)CN(Cc8c6[nH]c6ccccc86)C7)c(OC)cc5N(C)[C@H]4[C@@](O)(C(=O)OC)[C@@H]1OC(C)=O)[C@@H]32`, the concentration at half-maximal activity (AC50) in test [1] (setting [3]) was 145 nM [falling, full curve] and 776 nM [falling, full curve]; in test [1] (measured here: PEO4 viability), 230 nM [falling, full curve] and 275 nM [falling, full curve].

As for `CCC(=O)Nc1cccc(Oc2nc(Nc3ccc(N4CCN(C)CC4)cc3OC)ncc2Cl)c1`, the AC50 is 17.4 µM [falling, single point] in test [1] (setting [3]) and 15.5 µM [falling, partial curve] in test [1] (measured here: PEO4 viability).

On to `Nc1nccc(-c2c(-c3ccc(F)cc3)ncn2C2CCCCC2)n1`, for which the AC50 in test [1] (setting [3]) was 24.5 µM [falling, partial curve, poor fit]; in test [1] (measured here: PEO4 viability) it was 27.5 µM [falling, single point].

Turning to `NC(=O)c1cnc2[nH]ccc2c1NC1C2CC3C[C@H]1CC(O)(C3)C2` (stereo partly drawn), the AC50 in test [1] (setting [3]) is 11 µM [falling, partial curve]; in test [1] (measured here: PEO4 viability), 6.92 µM [falling, partial curve, poor fit].

Take `C=CC(=O)Nc1cccc(Oc2nc(Nc3ccc(N4CCN(C)CC4)c(F)c3)nc3[nH]ccc23)c1`: the AC50 in test [1] (setting [3]) was 4.9 µM [falling, full curve]; in test [1] (measured here: PEO4 viability) it was 2.45 µM [falling, full curve].

For `CCn1c(=O)c(-c2ccn[nH]2)cc2c(C)nc(N)nc21`, the AC50 in test [1] (setting [3]) was 15.5 µM [falling, partial curve]; in test [1] (measured here: PEO4 viability) it was 8.71 µM [falling, partial curve].

On to `FC(F)(F)c1ccc(CNc2ccc(Cc3c[nH]c4ncccc34)cn2)cc1`, for which the half-maximal activity concentration (AC50) is 6.16 µM [falling, partial curve, poor fit] in test [1] (setting [3]) and 4.9 µM [falling, full curve] in test [1] (measured here: PEO4 viability).

With `Nc1nc(N)c2nc(-c3cccc(Cl)c3)c(N)nc2n1`, the AC50 in test [1] (setting [3]) is 6.16 µM [falling, partial curve]; in test [1] (measured here: PEO4 viability), 4.9 µM [falling, full curve].

For the compound `CC1(C)CC(=O)c2c(C(F)(F)F)nn(-c3ccc(C(N)=O)c(NC4CCC(O)CC4)c3)c2C1` (stereo not drawn), the AC50 in test [1] (setting [3]) was 0.219 µM [falling, full curve]; in test [1] (measured here: PEO4 viability), 1.38 µM [falling, full curve]; in test [2] (setting [4]), 132 nM [falling, full curve]; in test [2] (setting [5]) it was 264 nM [falling, full curve].

On to `CCC[C@@H](C=O)NC(=O)[C@H](CC(C)C)NC(=O)[C@H](CC(C)C)NC(=O)OCc1ccccc1` (Cbz-Leu-Leu-[Nva]-aldehyde), for which the concentration at half-maximal activity (AC50) in test [1] (setting [3]) is 27.5 µM [rising, single point]; in test [1] (measured here: PEO4 viability), 0.49 µM [falling, full curve]; in test [2] (setting [4]), 1480 nM [falling, full curve]; in test [2] (setting [5]), 1870 nM [falling, full curve].

In the case of `CN[C@H]1CN(c2ccc3c(=O)c(C(=O)O)cn(-c4nccs4)c3n2)C[C@@H]1OC`, the AC50 is 502 nM [falling, full curve] and 1.07 µM [falling, full curve, poor fit] in test [1] (setting [3]); 2.83 µM [falling, partial curve, poor fit] and 13.4 µM [falling, single point] in test [1] (measured here: PEO4 viability).

In the case of `Nc1nc(F)nc2c1ncn2[C@@H]1O[C@H](CO)[C@@H](O)[C@@H]1O`, the AC50 in test [1] (setting [3]) was 6.92 µM [falling, partial curve]; in test [1] (measured here: PEO4 viability), 3.47 µM [falling, full curve]; in test [2] (setting [4]), 662 nM [falling, full curve]; in test [2] (setting [5]), 372 nM [falling, full curve].

With `COCCn1c2c([n+](Cc3cnccn3)c1C)C(=O)c1ccccc1C2=O`, the AC50 was 0.0174 µM [falling, full curve] in test [1] (setting [3]); 0.0138 µM [falling, full curve] in test [1] (measured here: PEO4 viability); 74.3 nM [falling, full curve] in test [2] (setting [4]); 59 nM [falling, full curve] in test [2] (setting [5]).

With `Cc1c(NC(=O)OC[C@@H]2COCCN2)cn2ncnc(Nc3ccc4c(cnn4Cc4cccc(F)c4)c3)c12`, the AC50 was 8.71 µM [falling, partial curve, poor fit] in test [1] (setting [3]); 2.19 µM [falling, partial curve] in test [1] (measured here: PEO4 viability); 20900 nM [falling, partial curve] in test [2] (setting [4]); 5260 nM [falling, partial curve] in test [2] (setting [5]).

`Cc1ccc(C(=O)N(CCCN)[C@@H](c2nc3cc(Cl)ccc3c(=O)n2Cc2ccccc2)C(C)C)cc1`: the AC50 in test [1] (setting [3]) was 0.0087 µM [falling, full curve]; in test [1] (measured here: PEO4 viability) it was 0.0062 µM [falling, full curve]; in test [2] (setting [4]) it was 16600 nM [falling, partial curve]; in test [2] (setting [5]) it was 66.2 nM [falling, partial curve, poor fit].

With `COc1ccc(S(=O)(=O)Nc2cccnc2Nc2ccc(O)cc2)cc1`, the AC50 in test [1] (setting [3]) was 0.616 µM [falling, full curve]; in test [1] (measured here: PEO4 viability), 1.23 µM [falling, full curve]; in test [2] (setting [4]), 187 nM [falling, full curve]; in test [2] (setting [5]), 41.8 nM [falling, full curve].

For the compound `C[C@@H](Oc1cc(-n2cnc3ccc(CN4CCN(C)CC4)cc32)sc1C(N)=O)c1ccccc1C(F)(F)F`, the AC50 in test [1] (setting [3]) is 0.0138 µM [falling, full curve, poor fit]; in test [1] (measured here: PEO4 viability) it was 0.0155 µM [falling, full curve]; in test [2] (setting [4]) it was 4180 nM [falling, partial curve]; in test [2] (setting [5]), 2640 nM [falling, full curve].

For the compound `CC[C@@]1(O)C(=O)OCc2c1cc1n(c2=O)Cc2cc3cc(O)ccc3nc2-1`, the AC50 in test [1] (setting [3]) was 0.0078 µM [falling, full curve]; in test [1] (measured here: PEO4 viability), 0.0549 µM [falling, full curve]; in test [2] (setting [4]), 264 nM [falling, full curve]; in test [2] (setting [5]), 264 nM [falling, full curve].

With `CS(=O)(=O)N1CCN(Cc2cc3nc(-c4cccc5[nH]ncc45)nc(N4CCOCC4)c3s2)CC1`, the AC50 in test [1] (setting [3]) was 6.92 µM [falling, partial curve]; in test [1] (measured here: PEO4 viability), 4.9 µM [falling, partial curve]; in test [2] (setting [4]) it was 9350 nM [falling, partial curve]; in test [2] (setting [5]), 1320 nM [falling, full curve].

Regarding `COc1ccc(-c2cc3c(C)nc(N)nc3n(C3CCC(OCCO)CC3)c2=O)cn1` (stereo not drawn), the half-maximal activity concentration (AC50) is 0.776 µM [falling, full curve] in test [1] (setting [3]); 0.436 µM [falling, full curve] in test [1] (measured here: PEO4 viability); 118 nM [falling, full curve] in test [2] (setting [4]); 52.6 nM [falling, full curve] in test [2] (setting [5]).

With `COc1cc2nc(-c3ccc(N4CCN(C)CC4)cc3)nc(NCCN3CCOCC3)c2cc1OC`, the AC50 is 24.5 µM [falling, single point] in test [1] (setting [3]); 12.3 µM [falling, partial curve] in test [1] (measured here: PEO4 viability); 469 nM [falling, full curve] in test [2] (setting [4]); 166 nM [falling, full curve] in test [2] (setting [5]).

Take `O=C(Nc1cc(C(F)(F)F)cc(C(F)(F)F)c1)c1cc(Cl)ccc1O`: the AC50 in test [1] (setting [3]) was 1.74 µM [falling, full curve]; in test [1] (measured here: PEO4 viability) it was 0.616 µM [falling, full curve]; in test [2] (setting [4]), 2640 nM [falling, partial curve]; in test [2] (setting [5]), 833 nM [falling, full curve].

With `Nc1ccc(-c2ccc3ncc4ccc(=O)n(-c5cccc(C(F)(F)F)c5)c4c3c2)cn1`, the AC50 in test [1] (setting [3]) was 0.0776 µM [falling, full curve]; in test [1] (measured here: PEO4 viability), 0.049 µM [falling, full curve]; in test [2] (setting [4]) it was 83.3 nM [falling, full curve]; in test [2] (setting [5]), 9.35 nM [falling, full curve].

Take `C=CC(=O)Nc1cc2c(Nc3ccc(F)c(Cl)c3)ncnc2cc1C#CC(C)(C)N1CCN(C)CC1`: the AC50 in test [1] (setting [3]) is 2.45 µM [falling, full curve]; in test [1] (measured here: PEO4 viability), 3.09 µM [falling, full curve]; in test [2] (setting [4]), 2640 nM [falling, full curve]; in test [2] (setting [5]), 3720 nM [falling, full curve].

As to `C[C@@]12O[C@@H](C[C@]1(O)CO)n1c3ccccc3c3c4c(c5c6ccccc6n2c5c31)CNC4=O`, the AC50 in test [1] (setting [3]) was 0.347 µM [falling, full curve, poor fit]; in test [1] (measured here: PEO4 viability), 0.174 µM [falling, partial curve, poor fit]; in test [2] (setting [4]), 9350 nM [falling, partial curve]; in test [2] (setting [5]), 5900 nM [falling, partial curve].

In the case of `CCc1c2c(nc3ccc(O)cc13)-c1cc3c(c(=O)n1C2)COC(=O)[C@]3(O)CC`, the AC50 is 0.0087 µM [falling, full curve] in test [1] (setting [3]); 0.0389 µM [falling, full curve] in test [1] (measured here: PEO4 viability); 52.6 nM [falling, full curve] in test [2] (setting [4]); 59 nM [falling, full curve] in test [2] (setting [5]).

Turning to `Cc1nc2cnc3ccc(C#Cc4cccnc4)cc3c2n1-c1ccc(C(C)(C)C#N)cc1`, the AC50 is 1.1 µM [falling, full curve] in test [1] (setting [3]); 0.549 µM [falling, full curve] in test [1] (measured here: PEO4 viability); 93.5 nM [falling, full curve, poor fit] in test [2] (setting [4]); 148 nM [falling, full curve] in test [2] (setting [5]).

For the compound `CC(C)c1nn(-c2c(Cl)cccc2Cl)c2nc(Cc3ccc(OCCO)cc3)[nH]c(=O)c12`, the AC50 in test [1] (setting [3]) was 0.0174 µM [falling, full curve]; in test [1] (measured here: PEO4 viability) it was 0.0776 µM [falling, full curve]; in test [2] (setting [4]), 74.3 nM [falling, full curve]; in test [2] (setting [5]), 74.3 nM [falling, full curve].

With `C=CC(=O)Nc1ccc2ncnc(Nc3ccc(OCc4cccc(F)c4)c(Cl)c3)c2c1`, the concentration at half-maximal activity (AC50) in test [1] (setting [3]) was 4.9 µM [falling, full curve]; in test [1] (measured here: PEO4 viability), 3.47 µM [falling, full curve]; in test [2] (setting [4]), 1480 nM [falling, full curve]; in test [2] (setting [5]), 1320 nM [falling, partial curve].
